The source of these data is article PMC5979959, “Structural modelling of the DNAJB6 oligomeric chaperone shows a peptide-binding cleft lined with conserved S/T-residues at the dimer interface” (Scientific Reports, 2018).

The assay concerns the target T1, human DNAJB6, cytosolic isoform B (human, UniProt O75190-2 1-241).
T1 construct: DNAJB6, human, cytosolic isoform B (UniProt O75190-2); monomeric mass 26.9 kDa; Polydisperse homo-oligomer with a varying number of subunits (34 to 55 by SEC-SAXS, about 20 in one GraFix fraction); For the mixed isotope cross-linking a 15N-labelled preparation of the same protein was mixed 1:1 with the unlabelled one; also called Mrj; DNAJB6 oligomers
Briefly: cross-linking; DNAJB6 (about 60 μM) with Aβ42 at a 1:1 molar ratio, 3 mM BS3 for 15 min, in-solution digestion, LC-MSMS, crosslinks found with MassAI. The following applies: both partners purified.

B1: Aβ42 peptide from human APP (Amyloid Precursor Protein) (peptide)
peptide: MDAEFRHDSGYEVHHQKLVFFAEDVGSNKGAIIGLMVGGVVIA
notes: extra start methionine that was added during recombinant expression; Aβ42 peptide of human amyloid precursor protein (APP). numbers count on: the Aβ42 peptide (D1 is the first residue, K16 and K28 the two lysines); The searches were made with and without the extra start methionine, so it may be partly removed
For B1, the binding result is “binds”.
